Assay results: the supplement of paper PMC4604168 (melanoma cell lines)
Some of the results follow. Repeats are few or missing, and single values can be far off.

Each compound was assayed on A101D (assay: cell count relative to DMSO control; melanoma cells; higher = more viable cells). Conditions: library dose: standard library concentration; 72 h.
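Note: cells treated in 1,536-well plates, then fixed and DAPI-stained, with nuclei counted from automated high-throughput microscope images.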

| Structure (SMILES) | cell count [%] |
| --- | --- |
| C[As](C)SC[C@H](NC(=O)CC[C@H](N)C(=O)O)C(=O)NCC(=O)O [Darinaparsin] + Cc1nc(Nc2ncc(C(=O)Nc3c(C)cccc3Cl)s2)cc(N2CCN(CCO)CC2)n1 [dasatanib] (first compound 2 µM, partner dose 0.02 µM) | 76.5 |
| Cn1cc(C2=C(c3cn(C4CCN(Cc5ccccn5)CC4)c4ccccc34)C(=O)NC2=O)c2ccccc21 [Enzastaurin] + C[C@]12O[C@H](C[C@]1(O)CO)n1c3ccccc3c3c4c(c5c6ccccc6n2c5c31)CNC4=O [Lestaurtinib] (first compound 4 µM, partner dose 0.02 µM) | 59.6 |
| Cn1cc(C2=C(c3cn(C4CCN(Cc5ccccn5)CC4)c4ccccc34)C(=O)NC2=O)c2ccccc21 [Enzastaurin] + COCC[n+]1c2c(n(Cc3cnccn3)c1C)C(=O)c1ccccc1C2=O [YM155] (first compound 4 µM, partner dose 0.002 µM) | 64.4 |
| C[As](C)SC[C@H](NC(=O)CC[C@H](N)C(=O)O)C(=O)NCC(=O)O [Darinaparsin] + O=C(Nc1cccc(Cl)c1)Nc1ncc(CCNc2ncnc3ccsc23)s1 [SNS314] (first compound 2 µM, partner dose 0.004 µM) | 70.9 |
| Cn1cc(C2=C(c3cn(C4CCN(Cc5ccccn5)CC4)c4ccccc34)C(=O)NC2=O)c2ccccc21 [Enzastaurin] + O=C(O)c1ccc(-c2c[nH]c3ncc(-c4ccccc4)cc23)cc1C1CCCC1 [GSK650394] (first compound 4 µM, partner dose 0.8 µM) | 99 |
| C[C@]12O[C@H](C[C@]1(O)CO)n1c3ccccc3c3c4c(c5c6ccccc6n2c5c31)CNC4=O [Lestaurtinib] + COc1cc2c(Oc3ccc4[nH]c(C)cc4c3F)ncnc2cc1OCCCN1CCCC1 [cediranib] (first compound 0.02 µM, partner dose 2 µM) | 82.6 |
| C[C@]12O[C@H](C[C@]1(O)CO)n1c3ccccc3c3c4c(c5c6ccccc6n2c5c31)CNC4=O [Lestaurtinib] + CCCCCCCCc1ccc(CCC(N)(CO)CO)cc1 [fingolimod] (first compound 0.02 µM, partner dose 10 µM) | 10.5 |
| C[As](C)SC[C@H](NC(=O)CC[C@H](N)C(=O)O)C(=O)NCC(=O)O [Darinaparsin] + Cn1nnc2c(C(N)=O)ncn2c1=O [temozolomide] (first compound 2 µM, partner dose 10 µM) | 77.7 |
| N.N.[Cl][Pt][Cl] [cisplatin] + O=C(Nc1cccc(Cl)c1)Nc1ncc(CCNc2ncnc3ccsc23)s1 [SNS314] (first compound 8 µM, partner dose 0.004 µM) | 86.7 |
| N.N.[Cl][Pt][Cl] [cisplatin] + C=C(c1ccc(C(=O)O)cc1)c1cc2c(cc1C)C(C)(C)CCC2(C)C [Bexarotene] (first compound 8 µM, partner dose 10 µM) | 71.3 |
| C[C@]12O[C@H](C[C@]1(O)CO)n1c3ccccc3c3c4c(c5c6ccccc6n2c5c31)CNC4=O [Lestaurtinib] + COc1ccc(Cl)c(Nc2nc3ccccc3nc2NS(=O)(=O)c2cccc(NC(=O)C(C)(C)N)c2)c1 [XL147] (first compound 0.02 µM, partner dose 4 µM) | 67.1 |
| C[C@]12O[C@H](C[C@]1(O)CO)n1c3ccccc3c3c4c(c5c6ccccc6n2c5c31)CNC4=O [Lestaurtinib] + CC(=O)c1c(C)c2cnc(Nc3ccc(N4CCNCC4)cn3)nc2n(C2CCCC2)c1=O [palbociclib] (first compound 0.02 µM, partner dose 0.2 µM) | 66.9 |
| C[C@]12O[C@H](C[C@]1(O)CO)n1c3ccccc3c3c4c(c5c6ccccc6n2c5c31)CNC4=O [Lestaurtinib] + CS(=O)(=O)CCNCc1ccc(-c2ccc3ncnc(Nc4ccc(OCc5cccc(F)c5)c(Cl)c4)c3c2)o1 [lapatinib] (first compound 0.02 µM, partner dose 4 µM) | 66.6 |
| C[C@]12O[C@H](C[C@]1(O)CO)n1c3ccccc3c3c4c(c5c6ccccc6n2c5c31)CNC4=O [Lestaurtinib] + N.N.[Cl][Pt][Cl] [cisplatin] (first compound 0.02 µM, partner dose 8 µM) | 46.3 |
| N.N.[Cl][Pt][Cl] [cisplatin] + Cn1nnc2c(C(N)=O)ncn2c1=O [temozolomide] (first compound 8 µM, partner dose 10 µM) | 68.2 |
| N.N.[Cl][Pt][Cl] [cisplatin] + C[C@]1(c2nc3c(C(N)=O)cccc3[nH]2)CCCN1 [Veliparib] (first compound 8 µM, partner dose 7 µM) | 44.3 |
| Cn1cc(C2=C(c3cn(C4CCN(Cc5ccccn5)CC4)c4ccccc34)C(=O)NC2=O)c2ccccc21 [Enzastaurin] + Cc1cc(N2CCOCC2)cc2[nH]c(-c3c(NC[C@@H](O)c4cccc(Cl)c4)cc[nH]c3=O)nc12 [BMS536924] (first compound 4 µM, partner dose 1 µM) | 107 |
| C[As](C)SC[C@H](NC(=O)CC[C@H](N)C(=O)O)C(=O)NCC(=O)O [Darinaparsin] + Oc1cc(-c2nc(-c3ccccc3)[nH]c2-c2ccncc2)ccc1Cl [L779450] (first compound 2 µM, partner dose 1 µM) | 62.8 |
| Cn1cc(C2=C(c3cn(C4CCN(Cc5ccccn5)CC4)c4ccccc34)C(=O)NC2=O)c2ccccc21 [Enzastaurin] + OCCn1cc(-c2cnc3nnn(Cc4ccc5ncccc5c4)c3n2)cn1 [PF04217903] (first compound 4 µM, partner dose 5 µM) | 50.7 |
| C[As](C)SC[C@H](NC(=O)CC[C@H](N)C(=O)O)C(=O)NCC(=O)O [Darinaparsin] + CN(C)S(=O)(=O)c1ccc2c(c1)/C(=C/c1cc3c([nH]1)CCCC3)C(=O)N2 [SU6656] (first compound 2 µM, partner dose 2 µM) | 69.3 |
| C[C@]12O[C@H](C[C@]1(O)CO)n1c3ccccc3c3c4c(c5c6ccccc6n2c5c31)CNC4=O [Lestaurtinib] + COCC[n+]1c2c(n(Cc3cnccn3)c1C)C(=O)c1ccccc1C2=O [YM155] (first compound 0.02 µM, partner dose 0.002 µM) | 56.1 |
| C[C@]12O[C@H](C[C@]1(O)CO)n1c3ccccc3c3c4c(c5c6ccccc6n2c5c31)CNC4=O [Lestaurtinib] + O=C(CCCCCCC(=O)Nc1ccccc1)NO [vorinostat] (first compound 0.02 µM, partner dose 0.4 µM) | 83.6 |
| C[C@]12O[C@H](C[C@]1(O)CO)n1c3ccccc3c3c4c(c5c6ccccc6n2c5c31)CNC4=O [Lestaurtinib] + Nc1nc(F)nc2c1ncn2[C@@H]1O[C@H](CO)[C@@H](O)[C@@H]1O [fludarabine] (first compound 0.02 µM, partner dose 1 µM) | 66.4 |
| C[C@]12O[C@H](C[C@]1(O)CO)n1c3ccccc3c3c4c(c5c6ccccc6n2c5c31)CNC4=O [Lestaurtinib] + CC1(C)NC(=O)N(c2ccc([N+](=O)[O-])c(C(F)(F)F)c2)C1=O [nilutamide] (first compound 0.02 µM, partner dose 5 µM) | 73.2 |
| C[C@]12O[C@H](C[C@]1(O)CO)n1c3ccccc3c3c4c(c5c6ccccc6n2c5c31)CNC4=O [Lestaurtinib] + CO[C@H]1C[C@@H]2CC[C@@H](C)[C@@](O)(O2)C(=O)C(=O)N2CCCC[C@H]2C(=O)O[C@H]([C@H](C)C[C@@H]2CC[C@@H](OCCO)[C@H](OC)C2)CC(=O)[C@H](C)/C=C(\C)[C@@H](O)[C@@H](OC)C(=O)[C@H](C)C[C@H](C)/C=C/C=C/C=C/1C [everolimus] (first compound 0.02 µM, partner dose 0.1 µM) | 70.2 |
| N.N.[Cl][Pt][Cl] [cisplatin] + CN1CCN(c2ccc3nc(-c4c(N)c5c(F)cccc5[nH]c4=O)[nH]c3c2)CC1 [Dovitinib] (first compound 8 µM, partner dose 0.5 µM) | 59.6 |
| Cn1cc(C2=C(c3cn(C4CCN(Cc5ccccn5)CC4)c4ccccc34)C(=O)NC2=O)c2ccccc21 [Enzastaurin] + O=C(O)c1ccc2c(c1)nc(Nc1cccc(Cl)c1)c1ccncc12 [CX4945] (first compound 4 µM, partner dose 2 µM) | 38.4 |
| N.N.[Cl][Pt][Cl] [cisplatin] + NC(=O)Nc1cc(-c2cccc(F)c2)sc1C(=O)N[C@H]1CCCNC1 [AZD7762] (first compound 8 µM, partner dose 0.1 µM) | 36.8 |
| N.N.[Cl][Pt][Cl] [cisplatin] + C[C@@H]1CCN(C(=O)CC#N)C[C@@H]1N(C)c1ncnc2[nH]ccc12 [CP690550] (first compound 8 µM, partner dose 5 µM) | 76.2 |
| C[C@]12O[C@H](C[C@]1(O)CO)n1c3ccccc3c3c4c(c5c6ccccc6n2c5c31)CNC4=O [Lestaurtinib] + O=C(Nc1cccc(Cl)c1)Nc1ncc(CCNc2ncnc3ccsc23)s1 [SNS314] (first compound 0.02 µM, partner dose 0.004 µM) | 68.7 |
